The campaign covered roughly 350,000 compounds. About 31,000 (8.9%) were called active. Inconclusive results, whose numbers are uncertain, are shown with a selection of clear calls. Calls come from the whole dose curve; as a rule, active = well fitted inhibition curve with a large enough effect; inconclusive = small, poorly fitted or top-dose-only effect; inactive = no such curve, though single readings can be large or run the other way. Potencies beside an inconclusive call are fits to weak or partial responses and may not hold up.
Target: Histone-lysine N-methyltransferase EHMT2 (Homo sapiens) (UniProt Q96KQ7)
Assay: qHTS Assay for Inhibitors of Histone Lysine Methyltransferase G9a; note: nearly all actives have a fitted effect of over 75% in size
Details: G9a H3K9 monomethylation, AlphaScreen, 2 h; activity, negative = inhibition: at 59 µM (top of the series) unless noted
Outline: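 AlphaScreen read-out: biotin-H3K9 peptide (500 nM) methylation by 20 nM enzyme with 20 uM SAM, 2 h at room temperature after 15 min compound preincubation; anti-monomethyl H3K9 antibody plus donor/acceptor beads, 10 min dark.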
% is set by controls: 0 for no effect and ±100 for the full control effect; potency is the fitted concentration of half-maximal effect; tags give direction and shape of the fitted curve.

Chain of UniProt Q96KQ7 (Q96KQ7 whole entry, looked up): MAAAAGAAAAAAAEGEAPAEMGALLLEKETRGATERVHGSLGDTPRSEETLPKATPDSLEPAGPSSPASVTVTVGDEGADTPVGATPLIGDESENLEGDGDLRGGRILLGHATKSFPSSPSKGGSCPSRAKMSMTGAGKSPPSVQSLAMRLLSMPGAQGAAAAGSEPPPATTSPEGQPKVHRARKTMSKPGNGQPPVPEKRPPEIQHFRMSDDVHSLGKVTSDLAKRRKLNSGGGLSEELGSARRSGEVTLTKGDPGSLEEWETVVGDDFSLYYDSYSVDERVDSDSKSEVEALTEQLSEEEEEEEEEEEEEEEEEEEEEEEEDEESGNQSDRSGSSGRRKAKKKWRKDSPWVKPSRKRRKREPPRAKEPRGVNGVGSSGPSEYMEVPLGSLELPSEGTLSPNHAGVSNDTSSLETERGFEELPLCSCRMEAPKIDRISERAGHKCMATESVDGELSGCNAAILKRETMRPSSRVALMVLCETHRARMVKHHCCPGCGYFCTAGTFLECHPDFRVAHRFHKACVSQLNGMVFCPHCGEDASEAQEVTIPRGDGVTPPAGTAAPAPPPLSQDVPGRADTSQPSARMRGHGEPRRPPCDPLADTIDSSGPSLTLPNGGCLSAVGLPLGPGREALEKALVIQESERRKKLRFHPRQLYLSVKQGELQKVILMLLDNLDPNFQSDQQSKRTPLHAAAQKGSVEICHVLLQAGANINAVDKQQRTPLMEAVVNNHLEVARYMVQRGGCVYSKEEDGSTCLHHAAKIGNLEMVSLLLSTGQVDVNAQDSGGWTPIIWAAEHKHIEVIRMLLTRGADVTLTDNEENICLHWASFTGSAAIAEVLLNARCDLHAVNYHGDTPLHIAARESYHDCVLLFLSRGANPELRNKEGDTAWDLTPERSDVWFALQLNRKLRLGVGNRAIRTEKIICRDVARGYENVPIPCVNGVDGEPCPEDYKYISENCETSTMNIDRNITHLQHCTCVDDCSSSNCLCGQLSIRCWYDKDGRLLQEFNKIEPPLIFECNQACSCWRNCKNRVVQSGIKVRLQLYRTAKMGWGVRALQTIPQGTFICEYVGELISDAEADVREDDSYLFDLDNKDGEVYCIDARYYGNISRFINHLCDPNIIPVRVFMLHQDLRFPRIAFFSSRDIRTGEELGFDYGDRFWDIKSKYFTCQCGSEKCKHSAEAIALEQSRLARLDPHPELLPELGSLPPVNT

| Compound | Potency | activity, negative = inhibition |
| --- | --- | --- |
| COC(=O)c1c(-c2cccs2)csc1NC(=O)COc1ccc(C(C)C)cc1 | active: 2.24 µM | – |
| O=C(CCc1nnc(Cc2cccc(C(F)(F)F)c2)o1)NCCc1ccccc1F | – | inactive: 14.6% [at 102 µM] |
| COc1ccc2cc(C(c3nnnn3CCc3ccccc3)N3CCCC(C)C3)c(=O)[nH]c2c1 (configuration not stated) | active: 44.7 µM | – |
| COC(=O)c1nc(NC(=O)c2ccc(F)cc2)n[nH]1 | active: 35.5 µM | – |
| CCN(CC(=O)Nc1ccc(NC(C)=O)cc1)C(=O)CSc1nnc(-c2ccco2)n1CC | inconclusive: 56.2 µM [inhibitor, partial curve, poor fit] | – |
| CC(Oc1ccc2ccccc2c1)C(=O)NNC(=S)NC(=O)c1ccco1 (configuration not stated) | active: 20 µM | – |
| COc1ccc(NC(=O)N2CCCC3(CCN(S(C)(=O)=O)CC3)C2)cc1 | – | inactive: 6.2% [at 12.7 µM] |
| O=C(Cn1c(=O)n(-c2ccccc2)c(=O)c2c3c(sc21)CCCC3)Nc1ccc(F)cc1 | – | inactive: -7.26% |
| COc1ccccc1N1CCN(C(=O)c2cc3c(=O)n(Cc4cccnc4)ccc3nc2C)CC1 | – | inactive: 10% |
| CC(C)OCCCn1c(=N)c(C(N)=S)cc2c(=O)n3ccccc3nc21 | inconclusive: 39.8 µM [inhibitor, single point] | – |
| O=C(c1cccc([N+](=O)[O-])c1)N1CCN(c2ccc(Cl)cc2)CC1 | inconclusive: 0.891 µM [inhibitor, full curve, poor fit] | – |
| Cc1ccccc1OCC(=O)Nc1nnc(S(=O)(=O)N(C)c2ccccc2)s1 | inconclusive: 7.94 µM [inhibitor, partial curve, poor fit] | – |
| Cc1cc(Nc2cccc(O)c2)c2ccccc2n1 | inconclusive: 44.7 µM [inhibitor, partial curve] | – |
| CCOc1ccc(-n2ccnc2SCC(=O)Nc2ccc(OC)cc2OC)cc1 | inconclusive: 35.5 µM [inhibitor, single point] | – |
| S=c1[nH]nc(-c2ccco2)n1-c1ccc(Cl)cc1 | inconclusive: 11.2 µM [inhibitor, full curve, poor fit] | – |
| COC(=O)c1ccccc1NC(=O)C12CC3CC(C1)CC(n1cnc(Cl)n1)(C3)C2 | inconclusive: 39.8 µM [inhibitor, single point] | – |
| COc1ccc(S(=O)(=O)N2CCCOC2CNC(=O)C(=O)NCCCn2ccnc2)cc1 (configuration not stated) | – | inactive: 6.31% [at 102 µM] |
| COc1ccc(C)c2sc(N(CCCN(C)C)C(=O)c3ccc(S(=O)(=O)N(C)C)cc3)nc12 | inconclusive: 70.8 µM [inhibitor, single point] | – |
| CC(C)c1nnc(NC(=O)c2ccc(N3C(=O)CCC3=O)cc2)s1 | inconclusive: 70.8 µM [inhibitor, single point] | – |
| Cc1ccc(Cl)cc1N1CCN(C(=O)c2cn(C)c3ccc(S(=O)(=O)N4CCCC4)cc3c2=O)CC1 | – | inactive: -7.82% |
| CC(=O)N(\C=C/C=C/C=C1\Sc2ccccc2C1=O)c1ccccc1 | active: 10 µM | – |
| CS(=O)(=O)N(CC(=O)N1CCN(c2ccc(F)cc2)CC1)c1cccc(Cl)c1 | inconclusive: 89.1 µM [inhibitor, partial curve, poor fit] | – |
| CCn1c2c(c(=O)n3ncc(C(=O)Nc4ccc(F)c(Cl)c4)c13)CN(Cc1ccc(OC)cc1)CC2 | inconclusive: 35.5 µM [inhibitor, single point] | – |
| Cc1cccc(CCNC(=O)c2nc(-c3ccc(Cl)cc3)n3c2CCCCC3)c1 | active: 11.2 µM | – |

| Compound | Potency | activity, negative = inhibition |
| --- | --- | --- |
| COc1ccc(Br)cc1CNC(=O)c1cc2c(=O)n(C)c3ccccc3c2s1 | inconclusive: 28.2 µM [inhibitor, partial curve, poor fit] | – |
| CCN(CC)C(=O)CSC(Nc1ccc(F)cc1)=C(C#N)C#N | inconclusive: 89.1 µM [inhibitor, single point] | – |
| CC(=O)OCC(=O)Nc1ccc(Cl)cc1Cl | – | inactive: 17.7% |
| CC(C)COP(=O)(c1ccc(N(C)C)cc1)C(O)c1ccccn1 (configuration not stated) | active: 3.55 µM | – |
| Clc1ccc(SCNc2ccccc2Cl)cc1 | – | inactive: 30.8% [at 102 µM] |
| CCN1CCN(c2ncc3c(n2)CCN(Cc2ccc(C)s2)C3)CC1 | inconclusive: 39.8 µM [inhibitor, single point] | – |
| COC(=O)C1=C(C)NC(=O)NC1c1ccc(-c2ccc(F)cc2)o1 (configuration not stated) | inconclusive: 50.1 µM [inhibitor, partial curve] | – |
| CC(C)n1ncc2c(C(=O)NCCc3ccc(F)cc3)cc(C3CC3)nc21 | inconclusive: 50.1 µM [inhibitor, partial curve, poor fit] | – |
| Oc1c(Cl)cc(Cl)cc1/C=N/c1nc(-c2ccc(Cl)cc2)cs1 | inconclusive: 70.8 µM [inhibitor, partial curve, poor fit] | – |
| CCOC(=O)c1[nH]c(C)c(/C(O)=C2\C(=O)C(=O)N(CCN3CCOCC3)C2c2ccco2)c1C (configuration not stated) | active: 39.8 µM | – |
| Cc1ccc(S(=O)(=O)c2cn(CC(=O)Nc3ccccc3)c3cc4c(cc3c2=O)OCO4)cc1 | – | inactive: -4.93% |
| CCCCNC(=O)c1ccc2c(c1)N(C)C(=O)c1ccccc1S2 | inconclusive: 89.1 µM [inhibitor, single point] | – |
| COc1ccc(-c2nc(SCC(=O)NCc3ccco3)c(-c3ccccc3)[nH]2)cc1OC | active: 44.7 µM | – |
| CCN=C1NN=C(c2ccc(C)cc2)CS1 | active: 31.6 µM | – |
| COc1ccccc1-n1c(CNC(=O)c2ccco2)n[nH]c1=S | active: 25.1 µM | – |
| Cc1ccc(S(=O)(=O)N2CCC(C(=O)OCc3c(C)noc3C)CC2)cc1C | active: 39.8 µM | – |
| CCN(CC(=O)NCc1cccs1)S(=O)(=O)c1cccc(Br)c1 | – | inactive: 34.9% [at 12.7 µM] |
| O=c1[nH]c(CN2CCOCC2)nc2ccccc12 | – | inactive: -0.338% [at 102 µM] |
| COc1ccc(/C=C/C(=O)O)cc1S(=O)(=O)N1CCc2ccccc2C1 | inconclusive: 50.1 µM [inhibitor, partial curve] | – |
| COc1ccc(C(=O)NC2CCc3ccccc32)cc1OC1CCN(C(C)C)CC1 (configuration not stated) | – | inactive: 39.9% [at 102 µM] |
| Cc1cccc(N2CCN(C(=O)c3ccc4c(c3)CCN4S(=O)(=O)c3ccccc3)CC2)c1C | – | inactive: -28.9% |
| COc1cc(-c2cc(=O)c3c(O)c(OC)c(OC)cc3o2)cc(OC)c1O | – | inactive: 30.6% [at 12.7 µM] |
| CC(=O)Nc1ccc(C(=O)CSc2nnc(-c3ccc(O)cc3)n2CC2CCCO2)cc1 (configuration not stated) | active: 20 µM | – |
| CCOc1ccccc1NC(=O)NC(CC)c1c(-n2cccc2)sc2c1CCN(C)C2 (configuration not stated) | inconclusive: 31.6 µM [inhibitor, single point] | – |

| Compound | Potency | activity, negative = inhibition |
| --- | --- | --- |
| COc1cccc(CN2CC(C(=O)N(C)Cc3ccc(C)cc3)CCC2=O)c1 (configuration not stated) | – | inactive: 5.61% |
| COc1cccc(OCc2cc(C3Nc4ccccc4C(=O)N3Cc3ccco3)ccc2OC)c1 (configuration not stated) | inconclusive: 31.6 µM [inhibitor, single point] | – |
| COc1ccc(C(=O)O)cc1F | inconclusive: 1.41 µM [inhibitor, partial curve, poor fit] | – |
| CCOC(=O)N1CCN(C(=O)c2cn(C)c3ccc(S(=O)(=O)N(C)C4CCCCC4)cc3c2=O)CC1 | – | inactive: -9.23% [at 102 µM] |
| COc1cccc(/C=C/C(=O)OCC(=O)c2cc(C)n(CC3CCCO3)c2C)c1OC (configuration not stated) | inconclusive: 79.4 µM [inhibitor, single point] | – |
| CCOc1ccc(-c2cn(-c3cccc(SC)c3)c(=O)[nH]2)cc1 | active: 28.2 µM | – |
| NS(=O)(=O)c1ccc(NC(=S)NCc2ccccc2)cc1 | active: 11.2 µM | – |
| S=C(c1cn(Cc2ccc(Br)cc2)c2ccccc12)N1CCOCC1 | inconclusive: 39.8 µM [inhibitor, single point] | – |
| CCN1CCN(S(=O)(=O)c2ccc(S(=O)(=O)NCC3CCCO3)cc2)CC1 (configuration not stated) | inconclusive: 1.41 µM [inhibitor, single point] | – |
| COc1cccc(CSCC(=O)NCCc2ccccc2)c1OC | – | inactive: 5.15% [at 102 µM] |
| Cc1nc(C)c(-c2csc(Nc3ccc(N)cc3)n2)s1 | active: 39.8 µM | – |
| Cc1nn(-c2cc(N3CCCCCC3)ccc2[N+](=O)[O-])c(=O)c2ccccc12 | – | inactive: -7.55% [at 102 µM] |
| Cc1nc(C2CC(=O)OC23CCCCC3)cs1 (configuration not stated) | inconclusive: 39.8 µM [inhibitor, single point] | – |
| CCc1nnc(NC(=O)CSc2ncc(-c3ccccc3)n2CC)s1 | – | inactive: 3.59% |
| CC(C)c1ccc(OCC(=O)N2CCc3ccccc3C2)cc1 | inconclusive: 0.708 µM [inhibitor, full curve, poor fit] | – |
| Cc1c(N/N=C(\C#N)C(=O)c2ccc(Cl)cc2)c(=O)n(-c2ccccc2)n1C | inconclusive: 25.1 µM [inhibitor, single point] | – |
| O=C1c2ccccc2C(Nc2ccc(-c3nc4ccccc4[nH]3)cc2)N1Cc1ccco1 (configuration not stated) | inconclusive: 35.5 µM [inhibitor, single point] | – |
| COc1ccc(C)cc1NC(=O)C(c1ccccc1)N1CCN(CC(=O)NC2CC2)CC1 (configuration not stated) | inconclusive: 63.1 µM [inhibitor, partial curve, poor fit] | – |
| Cn1c(C2CCCCC2)nc2c1c(=O)[nH]c(=O)n2Cc1ccccc1 | inconclusive: 50.1 µM [inhibitor, partial curve, poor fit] | – |
| O=C(O)C1CC=CCC1C(=O)Nc1cccc([N+](=O)[O-])c1 (configuration not stated) | inconclusive: 56.2 µM [inhibitor, partial curve] | – |
| COc1cc(/C=N/N2CCN(c3ccccc3OC)CC2)ccc1O | inconclusive: 44.7 µM [inhibitor, partial curve, poor fit] | – |
| Cn1cnc([N+](=O)[O-])c1Nc1ccccc1O | active: 25.1 µM | – |
| CCc1ccc(Nc2cc(C(=O)NCCCN3CCOCC3)c3ccccc3n2)cc1 | – | inactive: -6.52% [at 102 µM] |
| CCCN(CCC)S(=O)(=O)c1ccc(C(=O)N2CCn3c4c(c5cc(C)ccc53)CCCC42)cc1 (configuration not stated) | inconclusive: 3.55 µM [inhibitor, partial curve, poor fit] | – |

From PubChem BioAssay AID504332 (National Center for Advancing Translational Sciences (NCATS), 2011)
